The source gives no read counts; variants with many changes may rest on few reads.
B1: OR4K15 (parent)
chain: GUUAACGGUCAUAGGCCAUGGAAACUAGGAGCACCAUUUCGCUGCCAGUGAAGAAAUGAACAAAGAAAAUCUGGGCCAGGCAGGCAUCAAAAGAAAUAGUCUUGCGCUCAACCAGAAAGUCUGUAAUCAUUUUAAGGGUA

Variants of: B1
Assay: self-cleavage, relative activity (ratio to wild type); higher = more cleavage; in vitro, sequencing; the parent is a self-cleaving ribozyme
A18G A23G A68G U87C U133C showed a self-cleavage of 1.08. Work on A18G A62G A64G A126G yielded a self-cleavage of 0.32. In the case of U19A A36G A111U, the self-cleavage is reported as 0.15. Variant C16U U26C U131C has a self-cleavage of 2.34. With A18G A95G A110G the self-cleavage was 0.12. With A18G A55G U70G the self-cleavage was 1.01. In the case of A18G U19C A118C G136U, the self-cleavage is reported as 0.85. A18U U19C A24G A52U gave a self-cleavage of 1.96. A18U A24G U70C U87C gave a self-cleavage of 0.9. Work on A18G A36G A54G U57G A68U A89G yielded a self-cleavage of 0.5. C17G G44U A62C G74A gave a self-cleavage of 0.16. A18G A55G A91G U102C A125U showed a self-cleavage of 1.67. For A18U A89G A92U U131C, the self-cleavage was 1.31. With G15A A47G A62G A118G U131C the self-cleavage was 0.08. A18U A23G C71A U87A A98U U124C gave a self-cleavage of 0.57. In the case of A18G U49A A54G A60G A67G U70C C85U U103A U139G, the self-cleavage is reported as 0.06. With A18G A56G U100C U130C the self-cleavage was 1.03. A18G A63G A111U showed a self-cleavage of 0.17. A18G U26A U38C U43C gave a self-cleavage of 0.97. For A18G C45U A62G, the self-cleavage was 0.89. C17U A56G A60G A78U showed a self-cleavage of 0.17. With A18U A63G U122A the self-cleavage was 1.02. Work on A18G U38C U43C A98U A117G yielded a self-cleavage of 2.18. In the case of G15A A36G A89G A96G, the self-cleavage is reported as 1.45. For A18U A60U U122C, the self-cleavage was 1.53. U19A A54U A62G A92G A96G A111G gave a self-cleavage of 0.04. With A18G A22U U43C U100A the self-cleavage was 0.71. With A18G A36G A66G C113G the self-cleavage was 0.01. In the case of A18U A54G G58U A135G, the self-cleavage is reported as 2.01. In the case of A18G A24G A117G, the self-cleavage is reported as 1.1. For A18G A60G U120C, the self-cleavage was 0.86. For A18U A66G A111G, the self-cleavage was 0.03. For G15A A66U A86G U120A, the self-cleavage was 0.39. With C17U A117G U131C the self-cleavage was 0.85. For A18G A30U A55G A86U A116G, the self-cleavage was 0.23. With U19A A51G U57C A118G the self-cleavage was 0.84. With A18G A64G U100C U132A the self-cleavage was 1.92. A18U A47C U127C showed a self-cleavage of 1.13. With G14A U49C A52G A54G A78G A95C the self-cleavage was 0.06. G14A U26G A82G A91G U120A gave a self-cleavage of 0.1. In the case of A18U U49C U120A, the self-cleavage is reported as 1.33. Variant U19A A22G A24G A86G A116G A129G has a self-cleavage of 0.13. Work on G15A A47G U72A A116U yielded a self-cleavage of 0.02. A18G A92G U122C gave a self-cleavage of 0.76. Variant A18U A33G A92G U97C U102C A140G has a self-cleavage of 1.58. A18U U49G A118G U127C showed a self-cleavage of 0.21. With A18U A47U U87A the self-cleavage was 0.37. U19A A33G A55C A64G gave a self-cleavage of 0.71. Variant U19A A69G A94G has a self-cleavage of 0.77. Work on A18U A27G A59G U100C U122C yielded a self-cleavage of 1.38. Variant A18G A24G A96G has a self-cleavage of 0.92. A18G A67G A126G U130C gave a self-cleavage of 0.53. Variant C16G U19A U39C A92G has a self-cleavage of 1.6. A18U U26A A63G A134G showed a self-cleavage of 0.25. For A18G G53A A62G, the self-cleavage was 1.24. A18G A82G A89G showed a self-cleavage of 0.46. In the case of A18G U57G A86G U100A, the self-cleavage is reported as 0.33. In the case of A18G A23G A30G A62G A98U A110G U122C U139C, the self-cleavage is reported as 0.1. Work on A18G A55G A118C yielded a self-cleavage of 0.46. In the case of A18G U38C A59G U122C, the self-cleavage is reported as 0.99. A18U A22G U37C A52G U122A showed a self-cleavage of 0.75. Work on A18U A52G A114G U131C yielded a self-cleavage of 0.15. With U19A A22G A55U A111G A125G the self-cleavage was 0.01. In the case of U19A A62G A67U, the self-cleavage is reported as 1.75. C16U U57A U102A A111U gave a self-cleavage of 0.02. G14U A23G A60G A90G A94G A96U gave a self-cleavage of 1.24. For U19A A22G U37C A56G, the self-cleavage was 1.1. G14A U43C C77U showed a self-cleavage of 1.37. In the case of A18G U26C A111G A117G A118G, the self-cleavage is reported as 0. A18G U132C A134G gave a self-cleavage of 1.32. A18G U70C C109A A111G showed a self-cleavage of 0.04. Work on A18U A30G U43A U120C yielded a self-cleavage of 2.23. A18G U49C A64G A129U gave a self-cleavage of 0.56. Work on C17A A33G U87A yielded a self-cleavage of 0.62. In the case of A18G U37C U57C U132C, the self-cleavage is reported as 0.47. For A18G A69G A117G, the self-cleavage was 1.36. For C16A A91G A98U, the self-cleavage was 1.25. With A18G U43A U127A the self-cleavage was 1.51. A18U U19C A23U C113U gave a self-cleavage of 0.06. For A18G U97A G136A, the self-cleavage was 2.32. For A18U A55G A118G, the self-cleavage was 0.75. In the case of A18U A111G A140G, the self-cleavage is reported as 0.02. Work on C17U U108C A140G yielded a self-cleavage of 0.02. For A18U A33C U102A, the self-cleavage was 0.7. A18U A63G A140U gave a self-cleavage of 0.82. In the case of A18U A67G A78G U100C U130C, the self-cleavage is reported as 0.27. Variant A18U U39C U43C A67G C71U A78G has a self-cleavage of 0.19. A18U A24G U87C C109U showed a self-cleavage of 0.54. U19A A90G A116G gave a self-cleavage of 1.28. A18G U49C A52G A55G gave a self-cleavage of 0.66. A18G A30G A47G U122C showed a self-cleavage of 0.55. A18G A23G A126U gave a self-cleavage of 1.23. Variant U19A A22C A89U has a self-cleavage of 0.85. Work on A18G A51G U108C U122C yielded a self-cleavage of 0. For A18U A89G U100C A135U, the self-cleavage was 1.59. Work on C17U A56G A135G yielded a self-cleavage of 0.9. In the case of A18C U38C A52G A89U A110C U122A, the self-cleavage is reported as 0.16. In the case of A18G A33G U108C, the self-cleavage is reported as 0.02. In the case of A18G U43C A62G A68G A129G U131C, the self-cleavage is reported as 0.94. U19A A54G A91G U124C gave a self-cleavage of 1.19. Work on G15A U57C U127G U131G yielded a self-cleavage of 0.94. Work on G15A U19C A90G U100C yielded a self-cleavage of 2.29. In the case of A18G A60G A125G, the self-cleavage is reported as 0.44. Variant A18G A63G U108A has a self-cleavage of 0.04. Work on G15A A68G G79A A86G yielded a self-cleavage of 0.06. G14U A111G U133C showed a self-cleavage of 0.02. Work on A18U A51G A60G U72C yielded a self-cleavage of 0.29. A18C U38C A92G showed a self-cleavage of 1.44. For C16U A66G A69G, the self-cleavage was 0.62. With A18G A60U A86G A118G A126G the self-cleavage was 1.13. A18U U57A A129G gave a self-cleavage of 0.87. For A18G A27G A30G U49A, the self-cleavage was 1.36. A18G U39C A94U showed a self-cleavage of 1.3. With U19A A36U A117G the self-cleavage was 2.3. A18G A33G U43C A67G A78C U108C showed a self-cleavage of 0.01. Work on A18C C40A A78G yielded a self-cleavage of 0.27. A18G U103C A134G showed a self-cleavage of 0.46. A18G A23U U87A A91G U131C gave a self-cleavage of 1.04. Work on A18G A23G A27G A56G yielded a self-cleavage of 0.89. A18G A27U A91G gave a self-cleavage of 0.54. U19A A22G A30G G44A U127C showed a self-cleavage of 0.36. With U19A A55C U102A A117G the self-cleavage was 0.72. For U19A U37C C45A A114U, the self-cleavage was 0.1. In the case of A18G U70C U72C, the self-cleavage is reported as 0.23. With A18C U57A A96G A116U the self-cleavage was 0.16. C16U A23G A111G U133C A140G showed a self-cleavage of 0.02. With A18C A56G A94U the self-cleavage was 1.73. Work on C16U U19A A59G A78G U103C C113U yielded a self-cleavage of 0.03. In the case of A18U A23G G41A A59G A63G U108C, the self-cleavage is reported as 0.15. U19A A27G A78G A91G showed a self-cleavage of 0.2. A18G U38C U122C showed a self-cleavage of 1.19. With C16U A24G A36G A89U the self-cleavage was 0.92. Variant C16G U39A A64G U102A A116G U131A has a self-cleavage of 0.03. Work on U19A U26A U43C G50U yielded a self-cleavage of 1.37. Variant A18G A47C A110U has a self-cleavage of 0.94. G15A A89U A95G gave a self-cleavage of 2.28. In the case of A18U U43C A59G U87C, the self-cleavage is reported as 0.68. Variant A18G A82G A91U A116G has a self-cleavage of 0.22. C16A U57C U122C showed a self-cleavage of 0.94. A18G A89G A90G U103A A118G G123A gave a self-cleavage of 0.29. For A18G G73A U122C, the self-cleavage was 0.07. Variant A18G U39C C42U has a self-cleavage of 1.59. Work on A18U A69G U130C yielded a self-cleavage of 0.44. Variant A18U C85U A89G U120C has a self-cleavage of 0.27. Variant A18U A24U A60G U102C A117G U139C has a self-cleavage of 2.05. A18G A68G U132C showed a self-cleavage of 1.46. For A18C A55G A92G A126U A134G, the self-cleavage was 0.67. In the case of G15A U38G C45U A126G, the self-cleavage is reported as 0.79. Variant A18G A60U A62G A118C U127A has a self-cleavage of 1.59. Work on C17U A24G A30G A67G yielded a self-cleavage of 0.89. Variant G14A C40U U72C U87C has a self-cleavage of 0.02. A18U U43C A51U G65U A114G gave a self-cleavage of 0.19. In the case of A18G A24G U87C U100C, the self-cleavage is reported as 1.79. For G14U U19C A22U C61U A78G A116G, the self-cleavage was 0.05. Work on A18G A47G A68G U100C yielded a self-cleavage of 1.02. A18U A67G U72G gave a self-cleavage of 0.33. In the case of G15A A22U A67G A98U A126G, the self-cleavage is reported as 1.37. Work on G14A U37C G44A yielded a self-cleavage of 0.83. Work on A18G A23G U49G A68G A86G yielded a self-cleavage of 0.56. A18G A27G A110G U122C gave a self-cleavage of 0.23. With A18G A59U G79U the self-cleavage was 0.06. Work on A18G U38A U100C A114G yielded a self-cleavage of 2.03. Work on A18G A55G A59G A89C yielded a self-cleavage of 0.78. Variant A18G A60G A78U U132C has a self-cleavage of 0.16. For U19A A51G A63G C81A A82U U102C U127C, the self-cleavage was 0.18. Work on G15U G58U U124A yielded a self-cleavage of 0.56. A18G A51U U120A C128A A129U A140G showed a self-cleavage of 0.29.

From the RNAGym collection of RNA variant scans (doi:10.7554/elife.90254)
